Measured values from ChEMBL document CHEMBL4888484, “Replenishing the malaria drug discovery pipeline: Screening and hit evaluation of the MMV Hit Generation Library 1 (HGL1) against asexual blood stage Plasmodium falciparum ,using a nano luciferase reporter read-out” (2022).
About 540 (0.36%) of roughly 150,000 compounds showed an effect of 50% or more. This is one part of the list.

Test system: Plasmodium falciparum
Test: Primary screen in NF54 nanoGlo assay, in single point, at 2uM, 72h; a lower Z score goes with more inhibition
Assay type: functional, Erythrocyte
Conditions: timepoint 72 hour

Row | Structure (SMILES) | % Inhibition [%] | Z score
1 | CCN(CC)c1ccc(CNc2cncc(CO)n2)cc1F | -11 | 1.76
2 | CCN(C(=O)NCc1ccc(C)nc1OC)[C@@H](C)CS(C)(=O)=O | 8 | -1.04
3 | O=C(NCc1cccnc1)NCC1(c2ccccc2)CC1 | 4 | -0.47
4 | CCCNC(=NCCc1cccs1)NCc1nc(C2CC2)no1 | -2 | 0.27
5 | CCNC(=O)N1CC[C@H](CCOc2ccccc2)C1 | -7 | 1.08
6 | Fc1ccccc1CN1CCC(CNc2ccc3nnnn3n2)CC1 | -18 | 3.47
7 | CC1(C)Oc2ccccc2O[C@]1(O)c1ccc2ccccc2n1 | 12 | -1.19
8 | COc1cccc(COCC(=O)N[C@H](c2ccc(F)cc2)C(C)C)c1 | -3 | 0.26
9 | CN1C[C@@H](CNC(=O)CCCc2ccc(C(C)(C)C)cc2)CC1=O | -10 | 1.45
10 | O=C(N[C@H]1CCOC1)c1ccccc1N1CCS(=O)(=O)CC1 | 7 | -1.39
11 | Cc1ccc(-c2c(C(=O)N3CCN(C(C)C)CC3)nc3ccccn23)cc1 | -18 | 2.98
12 | OCC[C@H]1COCCN1c1ncc(Cl)cn1 | 10 | -1.28
13 | Cc1cc(C)c(-c2cc(C(=O)N(CCC(=O)N3CCCCC3)CC(C)C)no2)c(C)c1 | -28 | 2.51
14 | CCN1C[C@@H](C(=O)N2CCN(Cc3ccncc3)CC2)CC1=O | -6 | 0.73
15 | Cc1cc(S(=O)(=O)N2CC3(CCC3(F)F)C2)sc1C | -11 | 1.94
16 | Cc1cc(CN2CCN(C(=O)[C@H](C)n3cnc4c(N)ncnc43)CC2)on1 | -6 | 1.12
17 | CN1CCC(n2nccc2NC(=O)c2cnn(Cc3ccccc3)c2)CC1 | -11 | 1.62
18 | Cc1ccc(C(=O)N2CCC(n3ccnc3-c3ncc[nH]3)CC2)cc1 | 5 | -0.87
19 | COc1ccccc1OC/C=C/Cn1ccnc1 | -9 | 0.93
20 | Cc1ccc(-c2nn(-c3ccccc3)cc2C(=O)N2CC[C@H](N)C2)o1 | -10 | 0.86
21 | CCC(C)CN1C(=O)C(CC(C)C)NC12CCN(C(=O)c1ccc(C)cc1)CC2 (centres undefined) | -10 | 1.39
22 | O=C(Nc1ccc2c(c1)OCO2)c1ccc2c(c1)C(=O)N(Cc1ccncc1)C2=O | 0 | 0.05

Row | Structure (SMILES) | % Inhibition [%] | Z score
23 | CN(Cc1cc(C2CC2)nc2ccccc12)C1CCOCC1 | -16 | 1.92
24 | CCn1ccnc1CNc1nc2cc(Cl)ccc2n1C | -8 | 0.82
25 | CS(=O)(=O)c1ccc(N)cc1Cl | 5 | -0.75
26 | COc1ccc(NC(=O)C(=O)N(C)CCN(C)c2ccccc2)cn1 | 6 | -0.73
27 | CO[C@H]1CCN(C2CCN(S(=O)(=O)c3ccc(Oc4cccc(C)c4)cc3)CC2)C1 | -7 | 0.88
28 | O=C(Cc1ccc(N(Cc2cccc(F)c2)C(=O)c2cccc(F)c2)cc1)NCCN1CCCCC1 | 57 | -2.67
29 | Cc1cccc(NC(=O)C2CN(S(=O)(=O)C3CC3)C2)n1 | -10 | 1.28
30 | Cc1cc(-c2ccc(C)c(S(=O)(=O)NCC[C@H](C)N3CCCCCC3)c2)on1 | -14 | 1.81
31 | C[C@@H](Cc1ccccc1F)NC(=O)NCCNC(=O)C1CCCC1 | -6 | 0.7
32 | CC(C)c1nnsc1CN1CCO[C@H](c2ccc(Cl)cc2)C1 | -12 | 1.5
33 | CCc1cc(C(=O)N2CCN(C(=O)C3CCC3)[C@@H]3CS(=O)(=O)C[C@@H]32)no1 | -3 | 0.41
34 | Cc1ccc2c(c1)CCCN2C(=O)CN1[C@@H]2CC[C@H]1C[C@@H](O)C2 | 1 | -0.12
35 | CN(Cc1ccoc1)C(=O)[C@@H]1COCC(=O)N1Cc1ccccc1 | 6 | -1.01
36 | Cc1noc(C)c1CNC(=O)c1cnc(Cc2c(Cl)cccc2Cl)nc1O | -9 | 1.28
37 | CC(C)CC(=O)N1CCC[C@H]1c1ccncc1 | -5 | 0.64
38 | CC(C)CCNCC1(C(=O)N(C)C)CCCC1 | -11 | 1.34
39 | Cc1cc(F)ccc1-c1cccc(C(=O)N2CC[C@@]3(O)CCNC[C@H]3C2)c1 | -11 | 1.81
40 | Brc1cccc2c1cnn2CN1CCOCC1 | -10 | 1.25
41 | Cc1nc2ccccc2n1CCN[C@H](C1CCOCC1)C1CC1 | -3 | 0.49
42 | c1nc(CNc2ncc(C3CCOCC3)s2)cs1 | -13 | 1.59
43 | COc1cc(C)c(CN2CCC(CCC(=O)N(C)Cc3ccccc3)CC2)cc1C | -10 | 1.37
44 | COc1nccc2c(NCc3c(C)nn(C)c3C)cccc12 | -1 | 0.12

Row | Structure (SMILES) | % Inhibition [%] | Z score
45 | CCCCn1c(=O)[nH]c2cc(-c3nc(-c4ccc(Cl)cc4)no3)ccc2c1=O | -3 | 0.3
46 | N#Cc1cncc(N2CCCC[C@H]2C2CCC2)n1 | -22 | 2.39
47 | CN(C1(C#N)CCC1)S(=O)(=O)c1ccccc1Cl | -14 | 2.52
48 | C[C@@H](C(=O)NCCS(N)(=O)=O)c1cccc(Cl)c1 | -5 | 0.72
49 | Cc1nc(-c2ccncc2)nc(NCCS(=O)(=O)NC(C)C)c1C | 4 | -0.39
50 | COc1ccc(NC(C)(C)C(=O)N2CC[C@H](N3CCCCC3)C2)cc1 | -16 | 1.52
51 | O=C(Nc1nc(C(=O)NCc2cccnc2)co1)c1ccccc1 | -7 | 1.03
52 | Cc1ccc(CNC(=O)NCCCCn2ccnc2C)c(C)c1 | -4 | 0.49
53 | COc1ccc(C(=O)N(C)C[C@H]2CCCO2)cn1 | -6 | 0.54
54 | COc1ccc(-c2nc(-c3ccccn3)nn2CCO)c(OC)c1 | -9 | 1.68
55 | Cc1ncsc1CCC(=O)N1CCn2nc([C@H](C)O)cc2C1 | 1 | -0.21
56 | CN(CC1CC1)c1ccc(C(F)(F)F)cc1C(=O)O | -11 | 1.69
57 | COC[C@@H]1C[C@@H](O)CN1C(=O)c1ccc(CNC(=O)c2cccs2)cc1 | 2 | -0.32
58 | CCOc1ccc(-n2ncc(C(=O)Nc3cc(-n4cnnn4)ccc3C)c2C)nn1 | 26 | -2.99
59 | O[C@@H](Cc1ccccc1)Cn1cnnc1 | -6 | 0.71
60 | O=C(Cc1ccncc1)N1CCC2(CC1)NCCc1c2[nH]c2ccccc12 | -13 | 1.75
61 | O=C(NC[C@H]1CCCO1)c1ccc(S(=O)(=O)N2Cc3ccccc3C2)cc1 | -18 | 1.81
62 | COc1ccccc1N1CCN(Cc2nc(C(=O)N[C@@H](C)c3ccccc3)co2)CC1 | -8 | 1.53
63 | CCN(CC)c1ncc(Cl)c(C(=O)N(C)C2CCCCCC2)n1 | -2 | 0.26
64 | O=C(COc1ccccc1)NC1CCN(Cc2nnn3c2CO[C@H](c2ccccc2)C3)CC1 | -16 | 2.04
65 | CN(Cc1nnc2n1CCC2)C(=O)c1ccsc1NC(=O)c1cccs1 | -8 | 1.29
66 | c1ccc2[nH]c(N3CCCN(c4cc(NCC5CC5)ncn4)CC3)nc2c1 | -7 | 0.94

Row | Structure (SMILES) | % Inhibition [%] | Z score
67 | Cc1ccc(C)c(-c2nccn2[C@H]2CCNC2)c1 | -5 | 0.97
68 | CCC(CC)NC(=O)COc1ccc(OC)cc1 | -6 | 0.8
69 | Cc1c(C(=O)N2CCN(S(C)(=O)=O)CC2)nnn1-c1nc2c(s1)CCCC2 | -13 | 2.54
70 | CCCc1nnc(N2CCC(Oc3ccccc3OC)(C(=O)O)CC2)s1 | -5 | 0.64
71 | O=C(NCC[C@H]1CCOC1)c1ccc(-c2ccc3cc[nH]c(=O)c3c2)cc1 | -14 | 1.37
72 | O=C(O)Cn1ccc([C@H]2CCCN(C(=O)C3(N4CCCC4)CCCC3)C2)n1 | -14 | 2.56
73 | C[C@@H](CN(C)CCc1cc(F)cc(F)c1)N1CCOCC1 | -15 | 2.13
74 | C[C@H]1CCc2onc(C(=O)N3CCC(N4CCCCC4)CC3)c2C1 | -3 | 0.52
75 | Nc1nccc(NCc2cc3n(n2)CCN(C2CCCCC2)C3)n1 | 26 | -2.52
76 | CC(c1ccc(Cl)cc1)C(C)N(C)C(=O)c1cc(C(=O)O)ccn1 (centres undefined) | -1 | 0.1
77 | Cc1ccc(Cn2cccc2C(=O)C(=O)N2CCn3c2nc2ccccc23)cc1 | -2 | 0.34
78 | Cn1ccnc(Nc2ccc3c(c2)OCCO3)c1=O | -5 | 0.61
79 | CCCc1nc2cc(CCC(=O)Nc3ccc(Br)cc3)ccc2[nH]1 | 1 | -0.11
80 | COCCN(Cc1ccsc1)C(=O)N[C@@H](C)Cc1ccsc1 | 6 | -1.09
81 | CC(C)CC(NC(=O)C1CCCCC1C)C(=O)O (centres undefined) | 3 | -0.47
82 | Cc1cc(NC(N)=O)ccc1Br | -17 | 3.26
83 | CC(C)(C)C(=O)NC[C@H]1Cn2ccnc2CO1 | -12 | 1.9
84 | Cc1ccc(OCCNS(=O)(=O)C2CCCCC2)cc1 | -9 | 0.93
85 | CCOC(=O)Cc1csc(NC(=O)c2n[nH]c3c2CCC3)n1 | -5 | 0.62
86 | Cc1nc(N2CCC[C@H]2C(=O)O)nc2ccccc12 | -6 | 0.83
87 | CC(C)NC(=O)c1nsc(C(=O)NCc2ccncc2)c1N | -15 | 1.41
